Measured values reported in PubChem BioAssay AID624417 (National Center for Advancing Translational Sciences (NCATS), 2012).
About 6,400 (1.6%) of roughly 410,000 compounds were called active. Inconclusive results, whose numbers are uncertain, are shown with a selection of clear calls. The call rests on the fitted dose curve; in most records, active means well fitted inhibition curve with a large enough effect; inconclusive means small, poorly fitted or top-dose-only effect; inactive means no such curve, though single readings can be large or run the other way. No potency is given beside an inconclusive call; the fits are too rough.

biological target: Glucagon-like peptide 1 receptor (Homo sapiens) (UniProt P43220); experiment: qHTS of GLP-1 Receptor Inverse Agonists (Inhibition Mode); details: HEK293 GLP-1R CRE-luciferase, luminescence, 24 h; Potency: GLP-1R form is constitutively active unless noted; activity change, negative = inhibition: at 38.3 µM (top of the series) unless noted; further: nearly all actives have a fitted effect of over 55% in size
Chain of UniProt P43220 (P43220 whole entry, looked up): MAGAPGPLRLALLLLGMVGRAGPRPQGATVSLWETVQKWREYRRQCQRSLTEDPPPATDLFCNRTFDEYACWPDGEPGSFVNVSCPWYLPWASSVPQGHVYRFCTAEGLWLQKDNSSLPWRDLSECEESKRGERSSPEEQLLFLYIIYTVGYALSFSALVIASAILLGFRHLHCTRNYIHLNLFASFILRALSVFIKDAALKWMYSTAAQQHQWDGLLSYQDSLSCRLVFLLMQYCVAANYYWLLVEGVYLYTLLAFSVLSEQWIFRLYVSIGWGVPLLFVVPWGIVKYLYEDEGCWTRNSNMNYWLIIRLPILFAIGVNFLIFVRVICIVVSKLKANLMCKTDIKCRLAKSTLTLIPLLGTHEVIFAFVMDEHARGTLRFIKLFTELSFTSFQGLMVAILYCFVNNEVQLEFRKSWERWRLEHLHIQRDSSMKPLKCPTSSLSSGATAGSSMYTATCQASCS
Summary of the method: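 Constitutively active GLP-1R drives a cAMP-responsive luciferase in stably transfected HEK293 cells; test compounds are added after overnight (12 h) attachment and left 24 hr, and signal loss in luminescence marks inhibition.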
On the % scale 0 is the no-effect control and ±100 the full control effect; potency means the concentration at half of the fitted maximal effect; tags describe the fitted curve by direction and shape.

| SMILES | Potency | activity change, negative = inhibition |
| --- | --- | --- |
| c1ccc(C(OCCN2CCNCC2)c2ccccc2)cc1 | inconclusive [inhibitor, partial curve, poor fit] | – |
| Cc1ccc(-n2c(O)c(/C=C3/C(c4ccccc4)=Nc4ccccc43)c(=O)[nH]c2=O)cc1 | inconclusive [inhibitor, full curve, poor fit] | – |
| COc1cccc(C2(O)CCN(Cc3ccncc3)CC2)c1 | – | inactive: 0.845% |
| O=C1CN=C(c2cccc(Br)c2)c2cc(Br)ccc2N1 | inconclusive [inhibitor, partial curve] | – |
| O=c1[nH]c(=S)[nH]c(O)c1N=Nc1ccc2c(c1)OCCO2 | inconclusive [inhibitor, partial curve, poor fit] | – |
| N#Cc1ccc2nc(-c3ccc(CN4CCC(n5c(=O)[nH]c6ccccc65)CC4)cc3)c(-c3ccccc3)nc2c1 | inconclusive [inhibitor, partial curve] | – |
| CS(=O)(=O)c1ccc(C2=C(CNC(=O)c3ccncc3)[C@H]3CC[C@@H](C2)N3CCOc2ccccc2)cc1 | – | inactive: -11% |
| CN(C)c1ccc(C(O)P(=O)(OC2CCCCC2)OC2CCCCC2)cc1 (stereo not drawn) | inconclusive [inhibitor, single point] | – |
| CCOc1cc(CNC(C)C(O)c2ccccc2)cc(Cl)c1OCC (stereo not drawn) | inconclusive [inhibitor, partial curve, poor fit] | – |
| Cc1cc(OC(C)C(=O)NCC(O)c2ccccc2)c2c3c(c(=O)oc2c1)CCCC3 (stereo not drawn) | inconclusive [inhibitor, single point] | – |
| COc1ccccc1CN1CCNCC1 | – | inactive: 3.24% |
| Nc1ccc(Cc2ccc(N)c(Cl)c2)cc1Cl | inconclusive [inhibitor, single point] | – |
| CC(C)(O)C(=O)Nc1ccc([N+](=O)[O-])c(C(F)(F)F)c1 | – | inactive: -22.8% |
| CC(=O)Nc1cc(-c2cccc(C(=O)N(C)C)c2)cn2c(-c3cccc(C(F)(F)F)c3)cnc12 | inconclusive [inhibitor, single point] | – |
| Cc1c(C(=O)Nc2ccccc2)cc(-c2ccccc2)n1CCCN1CCOCC1 | inconclusive [inhibitor, single point] | – |
| CCOC(=O)c1cc(-c2ccccc2)n(CCCC(=O)Nc2ccc(C)c(C)c2)c1C | inconclusive [inhibitor, partial curve, poor fit] | – |
| CCCCCn1c(=O)c(C(=O)Nc2ncccc2C)c(O)c2ccccc21 | inconclusive [inhibitor, full curve, poor fit] | – |
| Cc1c(C(=O)NCc2ccc(Cl)c(Cl)c2)sc(=O)n1Cc1ccc(S(=O)(=O)N(C)C)cc1 | inconclusive [inhibitor, single point] | – |
